Here are results for 72 compounds from PubChem BioAssay AID1240 (Sanford-Burnham Center for Chemical Genomics, 2008).

Out of some 50,000 compounds screened, about 800 (1.6%) showed an effect of 50% or more. The list shows a part of the results.

The assay has as its target Bcl-2-like protein 10 (Homo sapiens) (UniProt Q9HD36). Briefly: TR3 peptide-Bcl-B binding displacers, biochemical primary FP assay, phenotype converters (AID 1240).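 Note: 0% = Bcl-B with tracer peptide and DMSO and 100% = tracer peptide lacking Bcl-B.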 Conditions: GST-Bcl-B / FITC-TR3 peptide fluorescence polarization; stronger effect = higher value; compound at 3.75 mg/L. (In general: Fluorescence polarisation rises when a labelled molecule tumbles more slowly, as on binding a larger partner.)
Sequence of UniProt Q9HD36 (Q9HD36 whole entry, looked up): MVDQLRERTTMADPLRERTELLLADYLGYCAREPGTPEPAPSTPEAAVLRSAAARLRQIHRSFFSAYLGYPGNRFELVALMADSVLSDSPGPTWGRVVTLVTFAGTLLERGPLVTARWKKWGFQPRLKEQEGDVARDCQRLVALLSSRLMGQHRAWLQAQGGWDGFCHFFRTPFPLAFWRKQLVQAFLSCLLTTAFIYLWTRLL
`O=C(COc1ccc2ccccc2c1)Nc1ccc(I)cc1Cl`: the displacement was 2.3%. The value for `CCC(C)c1ccc(OCCOc2c(I)cc(/C=N/n3cnnc3)cc2OC)cc1` (configuration not stated) was -12.2%; that for `CCCCCCCCn1c(-c2nonc2NC(C)=O)nc2ccccc21` was 13.8%; that for `COc1ccc(N2C(=O)NC(=O)/C(=C/c3cc(Cl)cc(OC)c3O)C2=O)cc1` was -21.3%. Take `CCC1=NN2C(=N)/C(=C/c3ccc(OCc4ccc(Br)cc4)c(OC)c3)C(=O)N=C2S1`: the displacement was 14.4%. The value for `O=C(Nc1ccc(OC(F)(F)F)cc1)c1ccc([N+](=O)[O-])cc1` was 6.8%. For `CC(=O)c1c(C(C)=O)c(C)n(-c2ccc(C)cc2)c1C`, the displacement was 5.8%. As for `CC1=C(c2ccccc2)[N+](=O)C(C)(c2ccc(C)cc2)N1[O-]` (configuration not stated), the displacement was determined as 17.1%.

In the case of `O=C(CSc1cccc2cccnc12)c1ccc(Cl)cc1Cl`, the displacement was -1.6%. In the case of `Cc1cc(C)nc(/N=C(/N)Nc2ccc(S(=O)(=O)Nc3nccc(C)n3)cc2)n1`, the displacement worked out at 6.2%. `O=C(c1ccc(Br)o1)N1CCN(C(=O)c2ccc(Br)o2)CC1`: the displacement turned out to be 28.8%. As to `O=C1NC(=O)/C(=C/c2cccnc2)S1`, the displacement worked out at 12%.

In the case of `CN=C1S/C(=C\c2ccc(I)o2)C(=O)N1C`, the displacement was -7.4%.

Take `COc1ccccc1-n1c(O)c(C=C2C=Nc3ccccc32)c(=O)[nH]c1=S`: the displacement turned out to be 8.3%. As to `CC1=CC(C)(C)Nc2ccc(OCC(=O)c3ccccc3)cc21`, the displacement turned out to be 19.2%. Turning to `CCCCCOC(=O)CSc1nnc(-c2ccccc2Cl)o1`, the displacement worked out at 4.1%.

Regarding `CCOC(=O)c1ccc(-c2ccc(C(=O)Nc3ccc(-c4nc5ccccc5s4)c(O)c3)o2)cc1`, the displacement was -5.5%. For the compound `CCOC(=O)C1=C(C)N=c2s/c(=C\c3ccc(I)cc3)c(=O)n2C1c1ccc(O)cc1` (configuration not stated), the displacement turned out to be 7.4%. Take `NC(=O)c1nn2c(c1Cl)NC(c1ccco1)CC2C(F)(F)F` (configuration not stated): the displacement came to 1.8%. The value for `CC12c3ccccc3C(c3ccccc31)C1C(=O)N(c3ccccn3)C(=O)C12` (configuration not stated) was 1.9%. For `CCCc1c(O)nc(SCCN(CCC)CCC)[nH]c1=O`, the displacement was -18.2%.

For the compound `O=C(NC(Cc1c[nH]c2ccccc12)C(=O)O)/C(=C/c1ccccc1)NC(=O)c1ccccc1` (configuration not stated), the displacement is -0.3%. For `CCCc1nc2ccccc2n1Cc1ccccc1`, the displacement is -6.8%. With `Cc1ccc(S(N)(=O)=O)cc1NC(=O)Cc1ccccc1`, the displacement was -6.5%. On to `O=[N+]([O-])c1ccc2c(c1)S(=O)(=O)N=C2Nc1cccc(Cl)c1`, for which the displacement was 9.5%.

As for `Cc1cc(OCC(=O)NCc2ccccc2Cl)ccc1Br`, the displacement is -1.3%. In the case of `COc1ccc(N2C(=O)NC(=O)/C(=C/c3ccccc3OCCOc3ccccc3)C2=O)cc1`, the displacement is -17.5%. In the case of `CC(C)(C#Cc1ccc(Br)cc1)OC(=O)Nc1cccc2ccccc12`, the displacement was determined as 8.6%. Regarding `COc1ccc(Br)cc1/C=N\N1CCN(c2ccc(C)cc2)CC1`, the displacement is -5.3%.

For `NC(=O)C1CCN(C(=O)c2cccc(C#CC3(O)CCCCC3)c2)CC1`, the displacement was -7.7%. Turning to `CC(C)(C)N1C(=O)NC(=O)C(=Cc2cccs2)C1=O`, the displacement was found to be 12.2%. With `CN1C(=O)C(=Cc2cccc(OCCOc3ccccc3)c2)C(=O)N(C)C1=O`, the displacement was -3.8%. For `CC1(C)OC(=O)CC1C(=O)NCc1ccccc1` (configuration not stated), the displacement is -11.6%. On to `Cc1cc(Br)ccc1NCc1ccccn1`, for which the displacement amounted to 15.5%. With `O=C(Nc1ccc(N2CCOCC2)cc1)c1ccc(Br)cc1`, the displacement was -5.7%. For the compound `O=C(Nc1ccccc1)c1c(F)c(F)c(F)c(F)c1F`, the displacement was -10.2%. In the case of `CCOC(=O)C1CCN(C(=O)C(O)(c2ccccc2)c2ccccc2)CC1`, the displacement is -10.1%. Turning to `Cc1ccc(C(=O)Nc2ccc(Nc3ccccc3)cc2)cc1[N+](=O)[O-]`, the displacement was -1.4%.

In the case of `COc1ccc(NC(=O)Cc2ccccc2[N+](=O)[O-])cc1`, the displacement turned out to be 4.1%. Take `Cc1cccnc1NC(=O)c1cc2c(ccc3ccccc32)oc1=O`: the displacement was determined as 93%. As to `Cc1ccc(-n2ncnc2-c2cccc(Cl)c2)cc1Cl`, the displacement is 10.1%. For `O=C(Nc1ccc(S(=O)(=O)Nc2ncccn2)cc1)c1ccccc1` the value was 11.1%; for `COc1cc2ccccc2cc1C(=O)Nc1cccc2ccccc12`, -9.6%; for `Cc1ccc(C(=O)N2CCN(c3ccc(Cl)cc3)CC2)cc1[N+](=O)[O-]`, -3%.

Consider `CC(=O)N1C(=S)NC(=O)/C1=C\c1cccnc1`, for which the displacement was determined as 93.4%. With `CCOC(=O)c1cc(-c2ccc(Br)cc2)nc2ccccc12`, the displacement is -7.5%.

For `Cc1cc(C=Nc2ccccc2)c(O)s1`, the displacement came out at 13.1%. Regarding `CN1C(=O)/C(=C/c2cc(Br)cc([N+](=O)[O-])c2O)SC1=S`, the displacement was -16.4%. Consider `O=C1c2ccccc2NC(c2ccccc2F)N1Cc1ccco1` (configuration not stated), for which the displacement amounted to 11.3%. Consider `COc1ccc(C(NC(C)=O)c2ccc(OC)cc2)cc1`, for which the displacement was 2.3%. With `CCOC(=O)c1c(NC(=O)CCN2C(=O)c3cccc([N+](=O)[O-])c3C2=O)sc2c1CCCC2`, the displacement was -4.5%.

`Cc1csc(NC(=O)CCC2CCCC2)n1`: the displacement was -3.7%. In the case of `CN(C)c1ccc(NC(=O)c2ccc(Br)cc2)cc1`, the displacement worked out at 48.8%. Consider `CC(=O)N/C(=N/c1nc(C)cc(C)n1)Nc1ccc(Cl)c(Cl)c1`, for which the displacement is -18.8%. For the compound `COC(=O)c1c(NC(=O)/C=C/C(=O)O)sc(C)c1-c1cc(C)ccc1C`, the displacement was 2.1%. For `CC1=NN(C(=O)c2ccccc2)C(O)(c2ccccc2)C1` (configuration not stated) the value was 2.1%; for `CC(C)c1ccc(NC(=O)c2ccccc2CCc2ccccc2)cc1`, -0.2%; for `CCc1ccc(-c2nc3cc(NS(=O)(=O)c4ccccc4)ccc3o2)cc1`, -3.4%. `CCCNC(=O)C(=O)NCCc1ccc(OC)c(OC)c1`: the displacement turned out to be 4.6%. As for `Cc1ccc2nc(-c3cc(NC(=O)COc4ccccc4)ccc3OC(=O)COc3ccccc3)oc2c1`, the displacement stood at 8.7%. For `COc1cc(F)ccc1S(=O)(=O)n1cnc2cc(C)c(C)cc21`, the displacement was found to be 9.1%. Take `CC(C)CC(=O)Nc1ccc(-c2nc3ccccc3s2)cc1`: the displacement stood at 6.1%. On to `COc1ccc(CNC(=O)c2cccc(OC)c2)cc1`, for which the displacement amounted to 5.9%. Consider `CCOC(=O)C1CCN(C2CC(=O)N(c3ccc(F)cc3)C2=O)CC1` (configuration not stated), for which the displacement was -1.9%.

For `NC(=O)C(=O)Nc1ccc(Oc2ccccc2)cc1`, the displacement was determined as 9.6%.

Consider `CCCCNC(=O)c1ccc(N2CCCCC2)c([N+](=O)[O-])c1`, for which the displacement is -1%. The value for `O=C(CCc1ccccc1)Nc1ccc(Br)c(Cl)c1` was -6%; that for `O=C(Nc1nc2ccccc2s1)c1ccncc1` was -4.8%; that for `Cc1ccc(C(=O)Nc2ccc(NC(=O)c3cccc(Cl)c3)cc2)cc1C` was 8.1%. In the case of `CCC1=NN2C(=N)/C(=C/c3ccc(-c4ccc([N+](=O)[O-])cc4OC)o3)C(=O)N=C2S1`, the displacement was 4.4%. The value for `O=C1CC(CC(=C2C(=O)CCCC2=O)N2CCCC2)CC(=O)N1` was 1%; that for `O=C(NCCNc1ccc(Cl)cc1[N+](=O)[O-])c1ccc(Br)o1` was 12.2%.
